For 219 sequences, binding signal results are on record in PMC6212790.

The other results are listed elsewhere or left out. At the low end of the ranking the order means little.

For the assay, the target named is T1, GST-Rok (full length) (UniProt O34857).
T1 sequence: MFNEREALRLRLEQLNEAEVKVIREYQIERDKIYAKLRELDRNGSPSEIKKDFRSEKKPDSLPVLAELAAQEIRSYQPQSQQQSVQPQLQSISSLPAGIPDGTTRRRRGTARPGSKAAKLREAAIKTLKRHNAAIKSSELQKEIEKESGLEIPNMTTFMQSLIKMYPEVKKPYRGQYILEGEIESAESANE
Briefly: protein binding microarray.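 Further: rank score from −0.5 (least bound) to 0.5 (best bound).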 To be noted: Rok is a gene silencer of Bacillus subtilis; high values mean tight binding; most listed sequences are background and not binding sites; double strand, one strand shown.
Take GAAAGGGA: the binding signal was -0.216 E-score. The value for CCTTTCTC was -0.158 E-score. Then CGTACGCA, with 0.0937 E-score; and GGGACAGA, with -0.0957 E-score; and GCGTGCTA, with 0.173 E-score. In turn, CACGAAAG gave a binding signal of -0.037 E-score. Then CCCTTTGA, with -0.37 E-score; and AACCTTCT, with -0.181 E-score. CTAGTAAA gave a binding signal of 0.328 E-score. The value for AGCGAGCA was -0.18 E-score. With CCCACATC, the binding signal was -0.248 E-score. The value for AAATATGA was 0.199 E-score; that for AAGCACCT was -0.164 E-score. Then CAGGAGTC, with -0.059 E-score.

Consider ACGGGCCA, for which the binding signal is -0.0602 E-score.

For the sequence ATTTATCG, the binding signal turned out to be 0.281 E-score. Then AATCTCAA, with 0.0439 E-score. Sequence GACGCGTA displayed a binding signal of 0.0146 E-score. The value for CCAAAATC was -0.00798 E-score. The sequence ATATGCTA showed a binding signal of 0.31 E-score. Turning to ATCATCTG, the binding signal was found to be 0.0384 E-score. The value for CGCTAGCG was 0.0246 E-score; that for CACAATGG was -0.0776 E-score. The value for CCGTCCGA was -0.32 E-score; that for GATGAATA was 0.157 E-score; that for AATGGGCC was -0.254 E-score. Then ACTCGAAA, with 0.213 E-score; and CTCGTCCA, with -0.225 E-score. Sequence GACACAAA registered a binding signal of 0.0864 E-score. CGCTCGCA came in with a binding signal of -0.0784 E-score.

ATACTGAA showed a binding signal of 0.103 E-score. GTGCAGAA: the binding signal was -0.091 E-score. For GAATGCCA, the binding signal is -0.00946 E-score.

In turn, GGTTACCA displayed a binding signal of -0.248 E-score. Then GGACGCTA, with 0.000145 E-score; and CCTATAAG, with 0.142 E-score; and GAACCAGA, with -0.24 E-score. The value for AAGTAAGG was -0.0987 E-score; that for ATATCTCA was 0.224 E-score; that for GGTTACTA was 0.163 E-score. On to CCCACGGA, for which the binding signal was -0.263 E-score. Then CAAACCTA, with 0.145 E-score; and GTACGTAC, with 0.275 E-score. GGCCCGAA gave a binding signal of 0.0559 E-score. Then TGACTGAA, with -0.0324 E-score; and ACTTCATC, with -0.0486 E-score; and GACCTCCA, with -0.306 E-score. Turning to AAGGCGTA, the binding signal is -0.0795 E-score. The value for ATATGACA was 0.154 E-score; that for CCTTGGGA was -0.194 E-score. The value for AGGAGATG was -0.192 E-score. The value for ATCGGGTC was -0.199 E-score; that for CAGTCGAA was -0.24 E-score. As to CCTTTTTC, the binding signal is -0.168 E-score.

In turn, TCCACCCA registered a binding signal of -0.192 E-score. AACCGCCT registered a binding signal of -0.293 E-score.

GTTTGTAA showed a binding signal of 0.172 E-score. Then GATATATC, with 0.39 E-score. Then ACGAGGTA, with -0.176 E-score; and ACCAATGA, with 0.0701 E-score. The value for CTGACAGC was -0.227 E-score; that for AGGGTACC was -0.352 E-score; that for CGGGTTGC was -0.297 E-score. AATCACGC: the binding signal worked out at 0.0329 E-score. On to CGGCCCAG, for which the binding signal is -0.282 E-score. The value for AGCGGACC was -0.174 E-score; that for AAGGTAGG was 0.133 E-score.

In the case of AAATGCTC, the binding signal was -0.142 E-score. Then CATGTAGC, with 0.384 E-score. Regarding CTCGAGGC, the binding signal is -0.235 E-score.

As for CTCACTGC, the binding signal amounted to 0.0486 E-score.

ATCCGTGA came in with a binding signal of -0.0763 E-score. Sequence GGCCATCA registered a binding signal of -0.282 E-score.

Sequence CGGGAAAG displayed a binding signal of -0.23 E-score.

For CCCGTTCA, the binding signal was -0.154 E-score.

In turn, GATAATCC came in with a binding signal of 0.101 E-score. Regarding GCCTAAAC, the binding signal is -0.17 E-score. Regarding AAGAGCCT, the binding signal is -0.224 E-score.

For the sequence CGCTACCG, the binding signal was 0.0836 E-score. AGAAGTGA gave a binding signal of 0.0234 E-score. The value for AGAGGGAT was -0.228 E-score; that for AGTGCGGA was 0.012 E-score; that for ACTGTTGC was 0.175 E-score.

For the sequence GATAGACC, the binding signal was determined as 0.144 E-score. The value for CCAACATC was 0.022 E-score.

As to CCAGGCCC, the binding signal was -0.477 E-score. The value for AGAACTGC was -0.189 E-score. The value for TATTGAAA was 0.0126 E-score; that for ATCTAGAA was 0.264 E-score.

In turn, ACAATTAC came in with a binding signal of 0.292 E-score.

As to CGATTCGA, the binding signal is 0.0554 E-score. Then CGATATTC, with 0.194 E-score. Then AATTTGGT, with 0.177 E-score. The value for ACCACATA was 0.22 E-score; that for GGTTTACA was 0.13 E-score. For the sequence CAGGGGTC, the binding signal is -0.378 E-score. Regarding TATGGGAA, the binding signal is 0.00644 E-score. The value for ACAAGGCC was -0.285 E-score; that for ATCGCAAG was 0.0159 E-score.

The sequence CTGTCAAC returned a binding signal of -0.0772 E-score. The sequence CGGCCTCC yielded a binding signal of -0.47 E-score. The value for CGCACCTC was -0.211 E-score; that for CTAATATC was 0.255 E-score. Then TACCCTCA, with -0.148 E-score; and CCTACCCG, with -0.129 E-score; and CCCGTGGC, with -0.218 E-score. The value for ATCTCAAT was 0.125 E-score. As to ATGAAATC, the binding signal is 0.029 E-score. Then ATTTCCCC, with -0.123 E-score; and AAGGGATT, with -0.133 E-score; and AGTGATGA, with 0.0696 E-score. TAGGTAAA displayed a binding signal of 0.222 E-score. Then ACCCCAAT, with -0.313 E-score; and CCAGTCAA, with 0.0257 E-score; and GACGGATA, with -0.0532 E-score. Then ACTGACGG, with -0.117 E-score; and AACGCTTA, with -0.0523 E-score.

For the sequence GCTTATTA, the binding signal was 0.163 E-score.

ACGACGCC yielded a binding signal of -0.224 E-score.

In the case of AATTGCCA, the binding signal stood at 0.106 E-score. CTACTGAA gave a binding signal of 0.0898 E-score.

In the case of CTTTCACC, the binding signal was -0.069 E-score. The value for CTGATTGA was 0.0462 E-score. Then CTTGGACA, with -0.0937 E-score; and TAGATTGA, with 0.243 E-score. Then AAGTACGC, with 0.0101 E-score; and AAGGTTGT, with -0.00326 E-score. On to TAGCGTCA, for which the binding signal is 0.0319 E-score. The value for ACGTAGCC was -0.0791 E-score.

Take ACCAGCAC: the binding signal was -0.049 E-score. GCCTCCCA: the binding signal was -0.31 E-score. Then GTCTCAAC, with 0.0182 E-score; and TCGTGCCA, with -0.0596 E-score. Then ACTGTACA, with 0.183 E-score. Then CAATCTAA, with 0.172 E-score; and GAGGCAGA, with -0.244 E-score; and AGACTGGG, with -0.158 E-score. As to AGCACATC, the binding signal came out at 0.0392 E-score. The value for ACCGTAGT was 0.0987 E-score; that for ACTTGTGA was -0.0118 E-score; that for AGGCGGTG was -0.118 E-score. The value for ACCGAATA was 0.165 E-score; that for CACCCCGC was -0.315 E-score. Then CGGGAACG, with -0.331 E-score; and ACCGACGG, with -0.204 E-score; and CGGGGAAA, with -0.0502 E-score.

The sequence ATGAAAGG showed a binding signal of -0.0999 E-score. For GGGCATGA, the binding signal is -0.239 E-score. Then AACATCCC, with -0.196 E-score. As to AGCTGGCA, the binding signal is -0.193 E-score. The value for TCGTTCCA was -0.0352 E-score; that for GGAAAGAA was -0.0486 E-score; that for AGGGAGTA was -0.13 E-score. Then ATCCCACG, with -0.0391 E-score. The value for CAATAGTA was 0.341 E-score; that for CACATGGA was 0.0382 E-score. The sequence AATAGAGA had a binding signal of 0.239 E-score. Then CTAGTGCA, with 0.183 E-score; and AGTGAATA, with 0.0769 E-score; and CCAGAGCA, with -0.238 E-score. The value for ATTAGAAC was 0.0761 E-score; that for CAAAAGGA was -0.277 E-score; that for CTCGTTTC was -0.07 E-score. Consider ATTGTCGA, for which the binding signal was found to be 0.0279 E-score.

CGCCTTAG returned a binding signal of -0.197 E-score.

As to TGCTGCAA, the binding signal was -0.149 E-score. The value for AAAGTACG was 0.22 E-score; that for CCTAAAAC was -0.0415 E-score. Then ACGATTAT, with 0.0621 E-score. The value for ACGTTAGG was 0.149 E-score; that for CTCGAGAG was -0.153 E-score. For the sequence ACGTTAGT, the binding signal is 0.208 E-score. GATACAAC gave a binding signal of 0.172 E-score. Then AGCAGTAC, with 0.152 E-score. The value for CGTGACAG was -0.207 E-score; that for TCGGACAA was -0.163 E-score.

GGTAGGCA registered a binding signal of -0.0246 E-score.

TAATACCA yielded a binding signal of 0.295 E-score. The value for ACCTGATC was 0.132 E-score; that for CCTCGGCC was -0.355 E-score. The value for ATGGCTCC was -0.167 E-score; that for GGCGTCCC was -0.312 E-score.

Sequence CGGCTAAA gave a binding signal of -0.169 E-score. Regarding AAAAGCAC, the binding signal is -0.209 E-score. The value for CAGACAGA was 0.055 E-score; that for TCATGCGA was 0.123 E-score. The value for CATTAGGG was -0.267 E-score. Then AGATCGGC, with -0.0118 E-score. In the case of AAGGGGAG, the binding signal is -0.306 E-score.

Consider TACAAAGA, for which the binding signal came to 0.138 E-score. The value for GATTAGGC was -0.196 E-score. The sequence ACCTGACG returned a binding signal of -0.206 E-score. The value for TTAATCAA was 0.0113 E-score; that for GGCGCTCA was -0.246 E-score; that for CGGAACCC was -0.136 E-score.

As for ACTTGCCC, the binding signal was -0.11 E-score. The value for ATGTATAC was 0.347 E-score; that for GTTCGCAA was 0.0647 E-score. Then CACGCGAC, with -0.196 E-score; and CCGGGTAG, with -0.145 E-score.

Take GACCTAGC: the binding signal stood at 0.0924 E-score. With GATGCCGA, the binding signal was -0.0107 E-score. AACCGGGG registered a binding signal of -0.334 E-score. Then ACGGATGC, with -0.078 E-score; and CCCGCGTC, with -0.133 E-score.

Take CGATCTCC: the binding signal is -0.122 E-score. The value for CCGGCCTC was -0.397 E-score; that for GTTGGAAA was 0.0453 E-score. Then CGCCCGAA, with -0.207 E-score. Then ATCACCAG, with 0.0364 E-score. ATTAGCCA returned a binding signal of -0.0359 E-score. Then AAGCCCCT, with -0.336 E-score. The value for ATGTAGTG was 0.211 E-score; that for CTAAGCTA was 0.244 E-score. The value for AAACTTGC was -0.0499 E-score. AACAAATA displayed a binding signal of 0.295 E-score.

As for ATCTCCGA, the binding signal turned out to be 0.00146 E-score. The value for CTTGCCGA was -0.0663 E-score; that for ATTGATAG was 0.288 E-score.
